From the supplement of paper PMC11417369
± gives the standard deviation of the averaged measurements. The list shows a part of the results.

Tested on: PfAP2-LT AP2 domain (GST-tagged)
Assay: gcPBM binding intensity (ln(normalized median fluorescence intensity)); higher = stronger DNA binding
In short: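 DNA-binding domains from P. falciparum, fused to GST and produced in E. coli, were put on an Agilent 4 × 180k double-stranded probe array for 1 h in 1× PBS holding 1% milk, 0.2 mg/ml BSA, 0.5% salmon testes DNA and 0.03% Triton X-100. Probes were primer-extended, 36 bp long and drawn from intergenic genomic regions, with negative controls included. After Alexa488 anti-GST antibody detection and a 488 nm scan, binding intensity was set as the highest Masliner-normalised natural-log median intensity across replicate spots of either probe orientation.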

Sequence | gcPBM binding intensity (ln)
AATATATTTATATATAGTACTTTTATAATATCGTTT [XGTACX_site6658] | 8.7 ± 0.41
AATACACATAATACATGTACTCACATTGTTATAACA [XGTACX_site4129] | 8.97 ± 0.33
TTTTTTATTTATTGTTATACATCTTACTACTTATAA [GTGCAC_negctrl_site381] | 8.88 ± 0.49
GATATGATTAACTTATGTTATTCTTGATGATTACGT [CACACA_negctrl_site354] | 8.86 ± 0.38
TACAAATTAATATGTACACACAAATATAAATATGTA [CACACA_site7016] | 9.01 ± 0.36
TACGTTATATACAACTGTACTTGGATAATTATTAAC [XGTACX_site5614] | 8.81 ± 0.38
TTTTCTTTTTTGAACTGTACGCGTAAATTTAAAAAG [XGTACX_site882] | 8.29 ± 0.38
AAGTTTTTTTCTTTTTTTCTCTCTTTTTTTTTTTTT [XGTACX_negctrl_site613] | 8.54 ± 0.46
ATTAATTTAATTTGAATTATTTTATTATATTATTAT [XGTACX_negctrl_site10] | 8.47 ± 0.44
GTTTGAATATATCAGGTGCATTTATAATTCATATGA | 8.68 ± 0.37
TATATATCTTTATGCACACACAAAGAAAATTTTCCT [CACACA_site7366] | 9.13 ± 0.43
ATAAGAAGAAGAAAAACACACATATGTAAATATATA [CACACA_site3138] | 9.09 ± 0.54
ATATTATAGATATACACACACACATGCATGCACATA [CACACA_site6203] | 9.72 ± 0.17
AGATGAACTAAAAAGGTGCTAAATATGTGACCACTG [GTGCAC_site9406] | 8.78 ± 0.49
TAATTAAATATTTCAGTGCATTATTTTATGATCCAT [GTGCAC_site9456] | 8.69 ± 0.49
ATTTAGAATGTTCCTACACACCAAATTTAAGTGTGC [CACACA_site7161] | 9.27 ± 0.4
TACATACACAGACACACACACATATAAATATAAATA [CACACA_site7641] | 9.78 ± 0.28
TTTTTTTTAGTATGAACACACATATAGATTATAAAA [CACACA_site7391] | 8.35 ± 0.41
TAAAAATATATTATATGTACGTATAACAATGTATGA [XGTACX_site8606] | 8.71 ± 0.39
GTATAATATTCATATTCACACATTAAAATATATTTA [CACACA_site4879] | 8.6 ± 0.33
ACCTAATATTATTAAACATGCACATTTGCATAAATA [TGCATGCA_site870] | 8.68 ± 0.37
CAAAATGAAAGGAAAAGTACATTTAAATGAATAAAT [XGTACX_site8241] | 8.88 ± 0.52

Sequence | gcPBM binding intensity (ln)
AAATAATTCAAAAAAACACACAAATTACAAAATAAA [CACACA_site269] | 8.92 ± 0.55
AAGGACAACAAACAAACACACACAAAAAAAAAATAA [CACACA_site9263] | 9.6 ± 0.62
AAGAATATAATCTTCACACATATATATATATATATA [CACACA_site5927] | 9.835 ± 0.035
TACACCTGCACGATTGCACACAAATATGTTTTGAAG [CACACA_site8656] | 9.27 ± 0.32
AAAAAAAAAAAAAAAACACACATGTATAATATAATA [CACACA_site2209] | 8.88 ± 0.53
TTATTATTAAAACACACACACAAAAAAAAAAAAAAA [CACACA_site1480] | 9.19 ± 0.4
TTATATATATATATATAATATATATATATTTAAATA [XGTACX_negctrl_site453] | 8.49 ± 0.26
TATAGATGTGGTTTATGTACATACTATAAAAAATCA [XGTACX_site1400] | 8.7 ± 0.49
GCAGCAGCATTTTCAGTGCATTATTATATTGTTCAT [GTGCAC_site9926] | 8.89 ± 0.38
TATTATAATACTTATTGTACTTTTAGGTTAATTTAT [XGTACX_site995] | 8.71 ± 0.48
GTAATAAAATGACATACATGCATTACAATTATGTAA [TGCATGCA_site220] | 8.91 ± 0.33
GTTGCACAATGTTACACACACAATATATATCGTTAA [CACACA_site1275] | 9.2 ± 0.33
GTGTACTTTTAAATAGTGCATTTTACAATAATAAAA [GTGCAC_site9653] | 8.4 ± 0.4
TAGTATTAAATATATACACACATATATACATATAGA [CACACA_site2154] | 8.95 ± 0.45
TTAATTTTTTTTTCTTGTACACACTATTTTATAATT [XGTACX_site8783] | 8.97 ± 0.59
AATTGTACGTAGGGGTATAAAAGCTTAAAAATGGGG [CACACA_negctrl_site1392] | 9.43 ± 0.042
AAAGCAAAAGGAAAATAACCAACCCTAATTAACACA [CACACA_negctrl_site530] | 8.96 ± 0.46
CCCTTTTTTTTTTAATGTACATATAATTATATATTT [XGTACX_site8568] | 8.78 ± 0.42
GGAAACCTTTTTTTTACACACAATATATTAAGACTT [CACACA_site4899] | 8.89 ± 0.33
AGATATCTTGTGAAATAAAAAAAATAATTGCTTATA [CACACA_negctrl_site798] | 8.38 ± 0.5
AAATTAGACTATAATACACACATAAAAAAAAAAAAA [CACACA_site6155] | 8.93 ± 0.51
AAAGAAAAAAAAATTACACACATATATTATAGATAT [CACACA_site7495] | 8.93 ± 0.43
